Reference: publication PMC4326527
Positions count from the first letter of the chain named. These are yes or no findings as the source states them, for the method shown. Some binding calls cover weakened binding; strength is not graded here. For some assays here: Tags and fused reporters may be left off the sequences shown.

Chains of the proteins cited; added tags and fusions are not shown. Lines headed by an entry give the natural chain unless they say otherwise; changes in a name come on top. A line that says so, or that is headed by a name, gives the form on record, which may keep a tag or linker.
USP46 amino-terminal fragment (1–164) in pNLS(SV40)-GFP (P62068, form named): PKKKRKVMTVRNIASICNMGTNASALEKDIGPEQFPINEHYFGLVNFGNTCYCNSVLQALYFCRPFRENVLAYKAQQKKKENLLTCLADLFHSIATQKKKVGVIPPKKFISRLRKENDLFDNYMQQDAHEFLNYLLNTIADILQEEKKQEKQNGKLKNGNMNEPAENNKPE
full length USP46 in pNLS(SV40)-GFP (P62068, form named): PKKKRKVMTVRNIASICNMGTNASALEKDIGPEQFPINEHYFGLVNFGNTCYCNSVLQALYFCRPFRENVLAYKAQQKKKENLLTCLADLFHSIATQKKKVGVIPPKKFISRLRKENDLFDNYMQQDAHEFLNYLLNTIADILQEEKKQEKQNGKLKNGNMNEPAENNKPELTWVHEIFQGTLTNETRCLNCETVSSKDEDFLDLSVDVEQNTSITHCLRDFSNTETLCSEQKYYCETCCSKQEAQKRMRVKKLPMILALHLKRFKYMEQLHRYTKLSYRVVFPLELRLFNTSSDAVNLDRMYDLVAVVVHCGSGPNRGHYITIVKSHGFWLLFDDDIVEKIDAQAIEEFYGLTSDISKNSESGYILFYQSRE
UniProt Q8TAF3: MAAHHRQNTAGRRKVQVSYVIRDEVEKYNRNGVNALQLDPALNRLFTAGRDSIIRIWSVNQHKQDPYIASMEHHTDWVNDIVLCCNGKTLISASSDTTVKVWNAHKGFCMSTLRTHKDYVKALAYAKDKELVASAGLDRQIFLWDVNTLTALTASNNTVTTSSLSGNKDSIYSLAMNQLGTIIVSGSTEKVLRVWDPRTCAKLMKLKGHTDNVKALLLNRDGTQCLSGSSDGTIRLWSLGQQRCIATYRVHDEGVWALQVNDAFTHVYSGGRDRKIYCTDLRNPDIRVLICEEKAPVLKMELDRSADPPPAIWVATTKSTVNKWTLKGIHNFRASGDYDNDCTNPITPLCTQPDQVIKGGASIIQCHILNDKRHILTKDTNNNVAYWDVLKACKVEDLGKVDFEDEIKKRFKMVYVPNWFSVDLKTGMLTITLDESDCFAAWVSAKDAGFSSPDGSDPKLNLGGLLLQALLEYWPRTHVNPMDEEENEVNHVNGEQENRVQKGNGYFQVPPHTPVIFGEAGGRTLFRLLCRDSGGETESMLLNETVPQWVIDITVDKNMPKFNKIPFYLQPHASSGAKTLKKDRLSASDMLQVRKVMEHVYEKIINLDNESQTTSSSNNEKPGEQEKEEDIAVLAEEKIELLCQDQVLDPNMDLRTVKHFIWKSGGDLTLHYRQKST

Assays:
Assay in all cases: nuclear relocation assay; 293T cells co-transfected with UAF1-mRFP and a GFP- or YFP-tagged nuclear DUB variant; nuclear accumulation of UAF1-mRFP seen by confocal microscopy in fixed cells (live cells too for USP1 WT, S313A, S313D; also after USP1 siRNA)
GFP-USP1^A676T (human) = biological target: T1, GFP-USP1^A676T (human) (UniProt O94782)
T1 sequence: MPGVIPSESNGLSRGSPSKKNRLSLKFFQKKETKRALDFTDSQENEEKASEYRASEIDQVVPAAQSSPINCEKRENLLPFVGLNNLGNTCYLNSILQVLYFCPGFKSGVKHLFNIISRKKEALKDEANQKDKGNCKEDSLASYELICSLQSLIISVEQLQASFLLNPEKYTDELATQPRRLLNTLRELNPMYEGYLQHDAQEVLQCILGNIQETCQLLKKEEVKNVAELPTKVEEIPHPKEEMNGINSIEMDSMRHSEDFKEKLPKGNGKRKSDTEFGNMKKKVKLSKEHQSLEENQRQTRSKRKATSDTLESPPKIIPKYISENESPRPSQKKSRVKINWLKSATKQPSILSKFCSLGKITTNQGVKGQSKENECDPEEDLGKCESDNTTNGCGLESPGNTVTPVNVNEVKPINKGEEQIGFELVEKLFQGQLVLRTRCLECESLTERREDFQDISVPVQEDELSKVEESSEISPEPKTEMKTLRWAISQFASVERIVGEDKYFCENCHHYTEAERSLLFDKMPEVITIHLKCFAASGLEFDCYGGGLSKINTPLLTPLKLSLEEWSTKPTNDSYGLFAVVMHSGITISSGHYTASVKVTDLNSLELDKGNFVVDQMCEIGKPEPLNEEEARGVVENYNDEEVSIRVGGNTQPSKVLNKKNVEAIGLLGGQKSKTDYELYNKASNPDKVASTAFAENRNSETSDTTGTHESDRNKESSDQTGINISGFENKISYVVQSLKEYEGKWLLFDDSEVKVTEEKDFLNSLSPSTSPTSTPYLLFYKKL

GFP-USP1^K673T (human) = biological target: T2, GFP-USP1^K673T (human) (UniProt O94782)
T2 sequence: T1 sequence with K673T, T676A

GFP-USP1^L669P (human) = biological target: T3, GFP-USP1^L669P (human) (UniProt O94782)
T3 sequence: T1 sequence with L669P, T676A

[1] = biological target: USP46 amino-terminal fragment (1–164) in pNLS(SV40)-GFP (Simian virus 40 | not stated) (UniProt P62068)
[2] = biological target: full length USP46 in pNLS(SV40)-GFP (Simian virus 40 | not stated) (UniProt P62068)

UAF1-mRFP (from UniProt Q8TAF3 1-677)
binding (GFP-USP1^A676T (human)): binds | binding (GFP-USP1^K673T (human)): binds | binding (GFP-USP1^L669P (human)): binds | binding [1]: no binding | binding [2]: binds
